The whole screen tested about 43,000 compounds, of which about 200 (0.47%) were called active. Another 12% or so got no clear call; they are omitted. Calls come from the whole dose curve; as a rule, active = well fitted cell-killing curve with a large enough effect; inconclusive = small, poorly fitted or top-dose-only effect, or effect the other way; inactive = flat fitted curve, though single readings scatter. The list shows a part of the results.
test: Cell viability qHTS assay in S16 Pmp22-F2sN cells; conditions: S16 Pmp22-F2sN Schwann cells viability, CellTiter-Glo, 24 h; series mostly up to 57.5 µM; activity change, negative = cytotoxicity: at the top concentration; note: nearly all actives have a fitted effect of over 65% in size
In short: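 Used to flag compounds lowering reporter output through toxicity, this quantitative HTS measures ATP-based CellTiter-Glo luminescence in S16 Pmp22-F2sN Schwann cells after 24 h compound exposure at 37C.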
% is set by controls: 0 for no effect and ±100 for the full control effect.

Compound	activity change, negative = cytotoxicity
O=C(CCC1N=C2c3ccccc3N=C(SCc3ccc(F)cc3)N2C1=O)N1CCN(c2ccccc2)CC1 (stereo unspecified)	inactive: -25.4%
COc1ccc(N2CCN(C(=O)CCCCn3c(=O)[nH]c4ccsc4c3=O)CC2)cc1	inactive: -25%
Clc1ccc(-c2nc3ncccn3c2Nc2ccc3c(c2)OCCO3)cc1	inactive: 21.1%
CCOC(=O)c1ccc(N2C(=O)c3n[nH]c(-c4cccs4)c3C2c2cccc(O)c2)cc1 (stereo unspecified)	inactive: -17.5%
COc1ccc(N(C)C(=O)c2oc(=O)c3ccccc3c2-c2ccc(C)cc2)c(OC)c1	inactive: 5.29%
N#Cc1c(-n2ncnc2-c2ccccc2Cl)sc2c1CCCCC2	inactive: -2.5%
Cc1cccc(Nc2cc(C)nc3nc(-c4ccccc4)nn23)c1	inactive: -8.6%
CC1=C(C(=O)Nc2cccc(F)c2)C2(CCCCC2)OC1=O	inactive: 1.26%
CC(C)c1ccc(CNC(=O)c2ccc(N3CCCC3)c(NC(=O)NCc3ccc(F)cc3)c2)cc1	inactive: -0.822%
COC(=O)c1c(SCC(=O)Nc2ccccc2C(F)(F)F)[nH]c2ccc(Cl)cc2c1=O	inactive: 14.1%
CCOC(=O)C1CCN(C(c2ccc(C)cc2)c2sc3nc(-c4ccco4)nn3c2O)CC1 (stereo unspecified)	inactive: 2.33%
CCOc1ccc(/C=C(\C#N)C(=O)Nc2sc3c(c2C(=O)OC)CCC3)cc1OC	inactive: 1.48%
COc1ccc(-c2cc(C(F)(F)F)nc(SCCC(=O)Nc3ccc(F)cc3F)n2)cc1	inactive: 18.4%
CCOCCCNC(=O)CN1C(=O)COc2ccc(S(=O)(=O)N3CCOCC3)cc21	inactive: 0.731%
O=C(CSc1ccc2nc(-c3ccccc3)cn2n1)Nc1ccccc1	inactive: 3.37%
O=C(Nc1ccc(F)cc1F)c1ccc(-n2cnc3cccnc32)cc1	inactive: -8.59%
CC(=O)c1ccc(NC(=O)CSc2nnc3c(n2)[nH]c2ccccc23)cc1	inactive: -29.2%
CC(=O)c1ccc(NC(=O)CSc2nccn2C2CCCC2)cc1	inactive: -8.44%
Cc1cccc(N2CCN(c3ccc4cc(S(=O)(=O)N5CCC(C)CC5)ccc4n3)CC2C)c1 (stereo unspecified)	inactive: -0.808%
Cc1nn(-c2cccc(Cl)c2)c2nc(-c3cccnc3)cc(C(F)(F)F)c12	inactive: 5.58%
CCOc1ccc(NC(=O)CSc2nc3ccccc3nc2N2CCOCC2)cc1	inactive: -0.624%
COc1ccc(CNC(=O)c2cc3cccc4c3n2CC(C)S4)cc1 (stereo unspecified)	inactive: -4%
O=c1c(N2CCN(c3ccc(F)cc3)CC2)csc2ccc(F)cc12	inactive: -5.03%
COc1ccc(S(=O)(=O)NC(C)(C)CO)cc1-c1nnc2c3ccccc3c(C)nn12	inactive: -0.956%

Compound	activity change, negative = cytotoxicity
CC(C)CC(=O)Nc1cccc(-c2cn3cccnc3n2)c1	inactive: -3.81%
CCCn1c(=O)c2sccc2n2c(CCCC(=O)N3CCN(c4ccc(OC)cc4)CC3)nnc12	inactive: -27.9%
CN(C)c1ccc(NC(=O)CC(NCc2cccnc2)C(=O)O)cc1 (stereo unspecified)	inactive: 11.3%
Cc1ccccc1NC(=O)c1sc2nc3n(c(=O)c2c1C)N=C(c1ccccc1)CS3	inactive: 10.7%
COc1ccc(C)cc1NC1(c2ccccc2)C(=O)c2ccccc2C1=O	inactive: 2.96%
COc1ccc(OC)c(N(C)S(=O)(=O)c2ccc3c(c2)NC(=O)CC(=O)N3)c1	inactive: -11.4%
Cc1ccc(NC(=O)CCCn2c(=O)c3cccn3c3cccnc32)c(C)c1	inactive: 5.55%
COc1cccc(CNc2sc3c(c2C(=O)Nc2ccc(OC)cc2OC)CCC3)c1	inactive: -7.87%
CCC(Sc1nc2nccnc2c(=O)n1Cc1ccc(Cl)cc1)C(=O)NC1CCCCC1 (stereo unspecified)	inactive: -11.2%
O=c1c(-c2cc(-c3ccccc3)nc3c2COc2ccc(Cl)cc2-3)coc2ccccc12	inactive: 23.4%
Cc1ccc(-n2ccn(CC(=O)c3ccc(F)cc3)c(=O)c2=O)cc1C	inactive: 3.35%
CC(=O)N1CCCc2cc(S(=O)(=O)Nc3ccc(OC(F)(F)F)cc3)ccc21	inactive: -1.14%
Cc1cccc(C)c1NC(=O)c1cc(S(=O)(=O)N2CCCc3ccccc32)ccc1F	inactive: -20.6%
COc1cccc(C(=O)NCCc2sc(-c3cccc(C)c3)nc2C)c1	inactive: 1.16%
Cc1ccc2c(CC(=O)Nc3c(C(=O)c4ccc(F)cc4)oc4ccccc34)coc2c1C	inactive: 7.47%
CC(C)c1ccc(NC(=O)C(Cc2ccccc2)n2cccc2)cc1 (stereo unspecified)	inactive: -17%
Cc1ccc(C)c(S(=O)(=O)c2cn(Cc3ccccc3)c3cc(N4CCCC4)c(F)cc3c2=O)c1	inactive: 8.72%
CCOc1ccc(NC(=O)Cn2c(=O)n(CC(=O)NCCc3ccccc3)c(=O)c3sccc32)cc1	inactive: -6.98%
COc1ccc2c(CNCCc3ccco3)c(C(=O)O)n(Cc3ccc(F)cc3)c2c1	inactive: 1.55%
CC(=O)Nc1nonc1-c1nnc(SCC(=O)Nc2c(C)cccc2C)n1-c1ccccc1	inactive: 0.199%
CCn1cc(C(=O)NCc2ccc(Cl)cc2)c(=O)c2cc(S(=O)(=O)N3CCc4ccccc4C3)ccc21	inactive: 0.691%
COc1cccc(NC(=O)c2oc3ccccc3c2NC(=O)c2ccc(OC(C)C)cc2)c1	inactive: -13.8%
COCC(C)NS(=O)(=O)c1ccc(N2CCCCS2(=O)=O)cc1 (stereo unspecified)	inactive: -1.22%
COc1cc(Cl)c(C)cc1NC(=O)CCn1cnc2onc(-c3ccc(F)cc3)c2c1=O	inactive: -10.5%

Compound	activity change, negative = cytotoxicity
CCOC(=O)c1ccc(NC(=O)c2sc3nc4n(c(=O)c3c2C)CCC4)cc1	inactive: -4.17%
CCN1C(C(=O)c2ccccc2)=C(NC(=O)c2ccc(Cl)cc2)c2ccccc2S1(=O)=O	inactive: -18.7%
Cc1ccc(C(=O)CSc2nc(-c3ccccc3)nc3c2CCCC3)cc1C	inactive: 5.16%
CCCN(CCC)c1cc(C)nc2nc(-c3ccc(Cl)cc3)nn12	inactive: 18.9%
Cc1nc2nc(NC(=O)C(C)C)[nH]n2c(=O)c1Cc1ccccc1	inactive: 14.9%
Cc1ccc(Nc2nc(C(N)=O)c(NC(=O)c3ccccc3Br)s2)cc1	inactive: -10.5%
CC1=C(C(=O)Nc2ccc(C)cc2C)C(c2cccs2)n2nc(SCc3ccc(Cl)cc3)nc2N1 (stereo unspecified)	inactive: -0.418%
COc1ccc(-c2csc3ncnc(Nc4cccc(F)c4)c23)cc1	inactive: -20%
Cc1cc(Oc2nc3ccccn3c(=O)c2/C=C(\C#N)c2nc3ccccc3s2)ccc1Cl	inactive: 1.19%
Cc1ccc2c(c1)c1c(c(=O)n(-c3ccccc3C)c(=O)n1Cc1cccc(F)c1)n2C	inactive: 1.07%
Cc1ccc(Cl)cc1NC(=O)C(NS(=O)(=O)c1ccc2c(c1)CCC(=O)N2)c1ccccc1 (stereo unspecified)	inactive: 5.71%
Cc1ccccc1C(=O)NC(=O)Nc1ccc(-n2nc(C(F)(F)F)cc2C(F)(F)F)cc1	inactive: 1.33%
COc1cccc(CNC(=O)CCn2c(=O)c3cccn3c3cccnc32)c1	inactive: -3.51%
COc1ccc2cc(CNc3ccccc3)c(=O)n(CC(=O)Nc3ccc(C(C)=O)cc3)c2c1	inactive: -1.35%
COc1ccc(-c2cn3nc(N4CCCC(C(=O)NCCCOC(C)C)C4)sc3n2)cc1 (stereo unspecified)	inactive: -0.571%
CCC(=O)N1CCc2cc(S(=O)(=O)NC(Cc3ccccc3)C(=O)NCc3cccc(OC)c3)ccc21 (stereo unspecified)	inactive: 4.09%
Cc1cccc(NC(=O)CC2C(=O)OCCN2Cc2ccccc2)c1 (stereo unspecified)	inactive: -25.5%
CC1=C(c2ccc(F)cc2)S(=O)(=O)NC1=NCc1ccccc1Cl	inactive: 4.67%
CC(C)(C)C(=O)Nc1ccc2nc(SCc3ccccc3)sc2c1	inactive: -25.2%
COc1ccc(C(=O)Cn2c(=O)n3nc(CCn4nc(C)cc4C)nc3c3cc(OC)c(OC)cc32)cc1	inactive: 14.3%
COc1ccc(S(=O)(=O)Nc2c(C)n(C)n(-c3ccccc3)c2=O)cc1Br	inactive: 1.61%
CCOc1ccc(C(=O)Nc2c(C)nc(Nc3ccccc3)nc2Nc2ccccc2)cc1OCC	inactive: -8.87%
CCOc1ccc(CNC(=O)C(C)n2ncn3cccc3c2=O)cc1 (stereo unspecified)	inactive: -2.39%
CCOC(=O)c1[nH]c(C)c(CCC(=O)Nc2ccc(C)cc2Cl)c1C	inactive: -13.6%

Compound	activity change, negative = cytotoxicity
O=C(c1ccc(Br)cc1)N1CCC(c2nc3ccccc3s2)CC1	inactive: -19.8%
CCOc1ccccc1CNC(=O)C1=C(C)C(=O)OC12CCN(C(C)=O)CC2	inactive: -0.0372%
COc1ccc(CCNc2nc(-c3ccccc3OC)cc(C(F)(F)F)n2)cc1OC	inactive: -4.08%
COc1ccccc1N1CCN(C(=O)CSc2nc(C)cc(=O)[nH]2)CC1	inactive: -8.78%
CC(C)Nc1cc(N2CCN(C3CCCCC3)CC2)c2noc3c2c1C(=O)c1ccccc1-3	inactive: -0.932%
O=C(NCCc1ccccc1)c1c2c(nc3ccccc13)C(=O)N(C1CCCCC1)C2	inactive: 0.101%
Cc1oc(-c2cccc(Cl)c2)nc1CN1CCC(C(=O)NCc2ccc(F)cc2)CC1	inactive: -2.08%
O=C(Nc1nnc(N2CCCC2)s1)Nc1cc(F)ccc1F	inactive: 12%
Cc1cc2c(n1-c1ccc(C(=O)NCc3cccc(Br)c3)cc1)CCC(C)C2 (stereo unspecified)	inactive: -12.3%
CCOC(=O)c1c(-c2ccccc2)oc2ccc(OCc3ccc(C)cc3)cc12	inactive: 3.27%
Cc1ccc(N2C(=O)CSC23C(=O)Nc2ccccc23)cc1F (stereo unspecified)	inactive: 13.9%
Cc1cccc(-c2nc3c4ccccc4n(CC(=O)Nc4cc(F)ccc4F)c(=O)n3n2)c1	inactive: 5.98%
CC(=O)c1cccc(NC(=O)C2CCN(c3nnc(-n4cccc4)s3)CC2)c1	inactive: -1.09%
O=C(c1cccc([N+](=O)[O-])c1)N1c2nc(-c3ccco3)nn2C2(CCCCC2)[C@@H]2CCCC[C@@H]21	inactive: -7.43%
COc1ccc(-c2cc(C(F)(F)F)nc(SCC(=O)N3CCCCC3)n2)cc1	inactive: 8.78%
CCCC(=O)c1cc2c(cc1NC(=O)c1ccccc1F)OCCO2	inactive: 8.12%
CCCCOc1ccc(NC(=O)c2cc3c(n(-c4ccc(Cl)cc4)c2=O)CCCC3=O)cc1	inactive: 8.51%
Cc1ccc(CNC(=O)CCCn2c(=O)c3ccccc3n(Cc3ccccc3Cl)c2=O)cc1	inactive: 10.6%
Cc1ccc(OCC(=O)N(Cc2ccc(N(C)C)cc2)CC2CCCO2)cc1C (stereo unspecified)	inactive: -3.34%
CC(=O)Nc1ccc(NC(=O)CC(C)n2ccc(C)n2)cc1 (stereo unspecified)	inactive: 0.66%
Cc1cc(C)c(-c2csc(-c3cc4ccccc4oc3=O)n2)cc1C	inactive: -0.646%
CCCN1CCN(CCNC(=O)Nc2cc(Cl)c(OC)cc2OC)CC1	inactive: 8%
O=C(Cn1c(=O)n(CCCS(=O)(=O)C2CCCCC2)c(=O)c2ccccc21)Nc1ccccc1F	inactive: 0.842%
Cc1nn2c3c(cnc2c1-c1ccc(F)cc1)C(=O)CC(c1ccccc1)C3 (stereo unspecified)	inactive: -1.08%
